From the supplement of paper PMC12217912
This is one part of the list. The full chains were built here from the parent and the listed change. Values near 0.05 are background.

B1: TEV protease; numbered along this chain (parent)
chain: MGESLFKGPRDYNPISSSICHLTNESDGHTTSLYGIGFGPFIITNKHLFRRNNGTLVVQSLHGVFKVKDTTTLQQHLVDGRDMIIIRMPKDFPPFPQKLKFREPQREERICLVTTNFQTKSMSSMVSDTSCTFPSGDGIFWKHWIQTKDGQCGSPLVSTRDGFIVGIHSASNFTNTNNYFTSVPKNFMELLTNQEAQQWVSGWRLNADSVLWGGHKVFMVKPEEPFQPVKEATQL

Variants of: B1
Test: raw area under fraction-flipped curve 0-4 h after induction (AUC4h, not background-subtracted), DNA-recorder readout of cleavage of the substrate (dimensionless); higher = more cleavage of the substrate by the protease variant
Conditions: temperature: 34 °C; time window: 0-4 h after rhamnose induction
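Further: Bxb1 expression induced with 0.2% (w/v) L-rhamnose at OD600 near 0.5, cultures sampled hourly, flipped fraction per protease–substrate barcode pair counted by paired-end Illumina sequencing.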

| Variant | area with substrate ENLYEQS | area with substrate ENLYGQS | area with substrate ENLYHQS | area with substrate ENLYMQS | area with substrate ENLYNQS | area with substrate ENLYPQS | area with substrate ENLYVQS | area with substrate ENLYWQS | area with substrate ENLYIQS | area with substrate ENLYKQS | area with substrate ENLYLQS | area with substrate ENLYQQS | area with substrate ENLYRQS | area with substrate ENLYTQS | area with substrate ENLYSQS | area with substrate ENLYYQS |
| --- | --- | --- | --- | --- | --- | --- | --- | --- | --- | --- | --- | --- | --- | --- | --- | --- |
| MGESLFKGPRDYNPISSSICHLTNESDGHTTSLYGIGFGPFIITNKHLFRRNNGTLVVQSLKGVFKVKDTTTLQQHLVDGRDMIIIRMPKDFPPFPQKLKFREPQREERICLVTTNFQTKSMSSMVSDTSCTFPSGDGIFWKHWIQTKDGQCGSPLVSTRDGFIVGIHSASNFTNTNNYFTSVPKNFMELLTNQEAQQWVSGWRLNADSVLWGGHKVFMVKPEEPFQPVKEATQL [H62K] | 0.0694 | 0.0545 | 0.077 | 0.0909 | 0.0722 | 0.0722 | 0.117 | 0.0738 |  |  |  |  |  |  |  |  |
| MGESRFKGPRDYNPISSSICHLTNESDGHTTSLYGIGFGPFIITNKHLFRRNNGTLVVQSLHGVFKVKDTTTLQQHLVDGRDMIIIRMPKDFPPFPQKLKFREPQREERICLVTTNFQTKSMSSMVSDTSCTFPSGDGIFWKHWIQTKDGQCGSPLVSTRDGFIVGIHSASNFTNTNNYFTSVPKNFMELLTNQEAQQWVSGWRLNADSVLWGGHKVFMVKPEEPFQPVKEATQL [L5R] | 0.075 |  | 0.06 |  |  | 0.0648 | 0.148 |  | 0.131 | 0.0659 | 0.0836 | 0.0546 |  |  |  |  |
| MGESLFKGPRDYNPISSSICHLTNESDGHTTSLYGIGFGPFIITNKHLFRRNNGTLVVQSLHGVFKVKDTTTLQQHLVDGRDMIIIRMPKDFPPFPQKLKFREPQREERICLVTTNFQTKSMSSMVSDTSCTFPSGDGIFWKHWIQTKDGQCGSPLVSTRDGFIVGIHSASNFTNTNNYFTSVPKNFMELLTNQEAQQWVSGWRLNACSVLWGGHKVFMVKPEEPFQPVKEATQL [D208C] | 0.0258 | 0.0655 | 0.0691 | 0.0627 | 0.0499 |  |  | 0.0828 | 0.0722 | 0.0694 |  | 0.0577 | 0.0614 |  |  |  |
| MGESLFKGPRDYNPISSSICHLTNESDGHTTSLYGIGFGPFIITNKHLFRRNNGTLVVQSLHGVFKVKDTTTLQQHLVDGRDMIIIRMPKDFPPFPQKLKFREPQREERICLVTTNFQTKSMSSMVSDTSCTFPSGDGIFWKHWIQTKDGQQGSPLVSTRDGFIVGIHSASNFTNTNNYFTSVPKNFMELLTNQEAQQWVSGWRLNADSVLWGGHKVFMVKPEEPFQPVKEATQL [C152Q] | 0.0609 |  | 0.0704 |  |  |  |  |  |  | 0.043 |  |  | 0.0556 |  |  |  |
| MGESLFKGPRDYNPISSSICHLTNESDGHTTSLYGIGFGPFIITNKHLFRRNNGTLVVQSLHGVFKVKDTTTLQQHLVDGRDMIIIRMPKDFPPFPQKLKFREPQREERICLVTTNFQTKSMSSMVSDTSCTFPSGDGIFWKHWIQTKDGQCGSPLVSTRDGFIVGIHSASNFTNTNNYFTSVPKNFMELLTNQEAQQWVSGWRLNIDSVLWGGHKVFMVKPEEPFQPVKEATQL [A207I] | 0.0671 | 0.0741 | 0.0716 |  | 0.0588 | 0.0659 |  |  | 0.0874 |  | 0.101 | 0.0618 | 0.0428 | 0.0866 |  |  |
| MGESLFKGPRDYNPISSSICHLTNESDGHTTSLYGIGFGPFIITNKHLFRRNNGTLVVQSLHGVFKVKDTTTLQQHLVDGRDMIIIRMPKDFPPFPQKLKFREPQREERICLVTTNFQTKSMSSMVSDTSCTFPSGDGIFWKHWIQTKDGQCGSPLVSTRDGFIVGIHSASNFTNTNNYFTSVPKNFMELLTNQEAQQWVSGWRLNADPVLWGGHKVFMVKPEEPFQPVKEATQL [S209P] | 0.0716 | 0.0668 | 0.0616 |  | 0.0828 | 0.0708 | 0.121 |  | 0.0738 | 0.0377 |  | 0.0552 |  |  | 0.0649 |  |
| MGESLFKGPRDYNPISSSICHLTNESDGHTTSLYGIGFGPFIITNKHLFRRNNGTLVVQSLHGVFKVKDTTTLQQHLVDGRDMIIIRMPKDFPPFPQKLKFREPQREERICLVTTCFQTKSMSSMVSDTSCTFPSGDGIFWKHWIQTKDGQCGSPLVSTRDGFIVGIHSASNFTNTNNYFTSVPKNFMELLTNQEAQQWVSGWRLNADSVLWGGHKVFMVKPEEPFQPVKEATQL [N116C] | 0.0746 |  | 0.0649 | 0.102 | 0.0645 | 0.0669 |  |  |  | 0.057 |  |  | 0.0702 |  |  | 0.0641 |
| MGESLFKGPRDYNPISSSICHLTNESDGHTTSLYGIGFGPFIITNKHLFRRNNGTLVVQSLHGVFKVKDTTTLQQHLVDGRDMIIIRMPKDFPPFPQKLKFREPQREERICLVTTNFQTKSMSSMVSDTSCTFPSGDGIFWKHWIQTKDGQCGSPLVSTFDGFIVGIHSASNFTNTNNYFTSVPKNFMELLTNQEAQQWVSGWRLNADSVLWGGHKVFMVKPEEPFQPVKEATQL [R160F] | 0.076 | 0.0399 | 0.0726 | 0.0912 | 0.0723 | 0.0896 | 0.15 | 0.153 | 0.143 | 0.0533 |  | 0.0729 | 0.0563 | 0.0855 |  | 0.0965 |
| MGESLFKGPRDYNPISSSICHLTNESDGHTTSLYGIGFGPFIITNKHLFRRNNGTLVVQSLHGVFKVKDTTTLQQHLVDGRDMIIIRMPKDFPPFPQKLKFREPQREERICLVTTNFQTKSMSSMVSDTSCTFPSGDGIFWKHWIQTKDGQCGSPLVSTTDGFIVGIHSASNFTNTNNYFTSVPKNFMELLTNQEAQQWVSGWRLNADSVLWGGHKVFMVKPEEPFQPVKEATQL [R160T] | 0.0454 | 0.0766 | 0.0674 | 0.0833 |  |  | 0.106 | 0.0922 | 0.163 | 0.0489 |  |  |  |  |  |  |
| MGESLFKGPRDYNPISSSICHLTNESDGHTTSLYGIGFGPFIITNKHLFRRNNGTLVVQSLHGVFKVKDTTTLQQHLVDGRDMIIIRMPKDFPPFPQKLKFREPQREERICLVTTNFQTKSMSSMVSDTSCTFPSGDRIFWKHWIQTKDGQCGSPLVSTRDGFIVGIHSASNFTNTNNYFTSVPKNFMELLTNQEAQQWVSGWRLNADSVLWGGHKVFMVKPEEPFQPVKEATQL [G138R] | 0.0591 |  | 0.0756 | 0.0669 |  | 0.0611 |  |  |  | 0.0169 | 0.0651 |  | 0.0604 |  |  | 0.0593 |
